# Data: PubChem BioAssay AID652104 (National Center for Advancing Translational Sciences (NCATS), 2013)
# In all, about 410,000 compounds went through this assay and about 7,200 (1.8%) were called active. This list was built around the results that the source calls inconclusive (neither active nor inactive); the mix of calls is not that of the screen. Calls follow the shape of the dose curve; as a rule, active = well fitted activation curve with a large enough effect; inconclusive = small, poorly fitted or top-dose-only effect, or another doubt; inactive = no such curve, though single readings can be large or run the other way. No potency is given beside an inconclusive call; the fits are too rough.
# Assay: qHTS of TDP-43 Inhibitors; also: nearly all actives have a fitted effect of over 50% in size; as to growth rescue (activation): % of control where 0% means no effect
# Conditions: TDP-43 expressing yeast growth rescue, BacTiter-Glo, 24 h; growth rescue (activation): at 46.1 µM (top of the series) unless noted
# Procedure, shortened: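 In this qHTS, compounds that restore growth of yeast expressing TDP-43 appear as activators. Cells (OD600=0.02, galactose medium, raffinose-pregrown) are incubated with compound 24 hr at 30 deg C and growth is quantified by BacTiter-Glo.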
# Potency is read from the fitted curve at half-maximal effect; tags tell the direction and shape of the fitted curve.
Structure (SMILES),Potency,growth rescue (activation)
O=C(/C=C/c1cccc([N+](=O)[O-])c1)N1CCN(c2ccccc2F)CC1,"inconclusive [activator, partial curve]",–
CC(=O)Nc1ccc(Nc2cc(C(C)C)nc3c(-c4ccccc4)c(C)nn23)cc1,"inconclusive [activator, single point]",–
Cc1ccc(/C=N/NC(=S)N2CCOCC2)cc1,active: 22.4 µM,–
CC1=NN(c2ccccc2)C(=O)/C1=C\C=C\c1ccccc1,inactive,–
Cc1ccc(NC(=O)/C=C/c2ccccc2Cl)cc1Cl,"inconclusive [activator, partial curve, poor fit]",–
CN(C(=O)c1ccc2c(c1)C(=O)N(CCC1=CCCCC1)C2=O)C1CCCCC1,active: 22.4 µM,–
COc1ccc(N(C)C(=O)Cn2cc(S(=O)(=O)N3CCN(c4ccccc4F)CC3)c3ccccc3c2=O)c(OC)c1,inactive,–
Clc1ccccc1-c1nc2ccccc2c2nncn12,active: 39.8 µM,–
CCCNC(=O)CCn1c(-c2ccc(C)cc2)cc(C(=O)OCC)c1C,"inconclusive [activator, single point]",–
CCOC(=O)c1sc(NC(=O)c2c(-c3ccccc3)c(-c3ccccc3)nn(C)c2=O)nc1C,active: 15.8 µM,–
Cn1c(SCc2ccccc2Cl)nnc1-c1cnccn1,active: 11.2 µM,–
CCOC(=O)c1c(-c2cccs2)csc1NC(=O)CN1CCOCC1,"inconclusive [activator, single point]",–
O=C1CC(Sc2nnc(-c3ccccc3O)o2)C(=O)N1c1ccccc1 (stereo not given),"inconclusive [activator, single point]",–
C/C(=N\NC(=O)c1ccc(O)cc1)c1cccc(NC(=O)c2ccccc2C)c1,inactive,–
CC1(C(=O)NS(=O)(=O)c2ccc(Cl)s2)CCN1C(=O)c1ccccc1CCc1ccccc1 (stereo not given),"inconclusive [activator, partial curve]",–
O=C(NCCSc1c[nH]c2ccccc12)c1ccccc1Cl,active: 35.5 µM,–
C/C(=N\Nc1nc(Nc2ccccc2)nc(N2CCOCC2)n1)c1cccs1,"inconclusive [activator, full curve, poor fit]",–
CSc1cccc(NC(=O)N2CCc3ccc(NC(=O)c4ccccn4)cc3C2)c1,"inconclusive [activator, partial curve]",–
CNc1nc(N)c([N+](=O)[O-])c(Nc2cccc(Cl)c2)n1,"inconclusive [activator, partial curve]",–
Cc1ccccc1Nc1c(-c2ccc(N3CCOCC3)cc2)nc2ccc(Br)cn12,"inconclusive [activator, partial curve]",–
Clc1ccc(OCc2nc(-c3ccncc3)no2)c(Br)c1,"inconclusive [activator, single point]",–
Cc1ccc(-c2csc3ncnc(N4CCN(c5ccccc5O)CC4)c23)cc1,"inconclusive [activator, single point]",–
CC(C)(C)Nc1nc(SCC(=O)Nc2ccccc2Cl)nc(N2CCOCC2)n1,"inconclusive [activator, single point]",–

Structure (SMILES),Potency,growth rescue (activation)
COc1nc(-c2ccccc2)cc(-c2ccc(OC)c(OC)c2)n1,"inconclusive [activator, single point]",–
O=C(COC(=O)c1ccc(OC(F)F)cc1)NC(=O)NC1CCCC1,inactive,–
FC(F)(F)c1cc(-c2ccco2)nc(NCc2ccco2)n1,"inconclusive [activator, single point]",–
CCCCOC(=S)NC(=O)c1sc2ccccc2c1Cl,"inconclusive [activator, partial curve]",–
Cc1cc(O)cc(O)c1C(=O)Cc1cnn(-c2ccccc2)c1,active: 8.91 µM,–
O=C(CSc1nccn1Cc1ccc(F)cc1)NCc1ccco1,"inconclusive [activator, full curve, poor fit]",–
COc1ccc(N2C(=O)NC(=O)C2=O)cc1,inactive,–
Cn1c(=O)c2c(ncn2CC(COCc2ccccc2Cl)OCc2ccccc2Cl)n(C)c1=O (stereo not given),"inconclusive [activator, single point]",–
Cc1ccc(S(=O)(=O)NC(=O)c2cc(C)n(-c3ccc(N(C)C)cc3)c2C)cc1,active: 35.5 µM,–
COc1ccc(-c2c(C)c3ccc(O)c(CN4CCOCC4)c3oc2=O)cc1OC,"inconclusive [activator, single point]",–
CCOC(=O)CNC(=S)N(Cc1cccs1)C1CCCCC1,"inconclusive [activator, partial curve]",–
COc1ccc(-c2csc(N3CCC(c4ccccc4)C3)n2)cc1 (stereo not given),"inconclusive [activator, partial curve, poor fit]",–
COc1ccc(CC(=O)Nc2nc3c(s2)CCCC3)cc1,"inconclusive [activator, partial curve]",–
CN(C)c1cccc(NC(=O)C2Cc3c(-c4ccccc4Oc4ccccc4)ccnc3O2)c1 (stereo not given),inactive,–
Cc1ccc2c(c1)N(C(=O)CCC(=O)NCc1cccc(F)c1)CC(C)O2 (stereo not given),inactive,–
CC(=NNC(=S)Nc1ccccc1Cl)c1ccccn1,"inconclusive [activator, full curve]",–
Cc1nnc(SCC(=O)N2CCC(c3noc4ccc(F)cc34)CC2)s1,inactive,–
CCOC(=O)C1=C(CSc2nc3ccccc3s2)NC(=O)NC1c1ccc(OC)cc1 (stereo not given),"inconclusive [activator, single point]",–
O=[N+]([O-])c1ccc(S(=O)Cc2ccccc2)c([N+](=O)[O-])c1 (stereo not given),–,inconclusive: -92.7% [activator]
O=C1SCCN1N=Cc1ccc([N+](=O)[O-])o1,"inconclusive [activator, single point]",–
COc1ccc(N2CC(C(=O)OC(C)C(=O)c3ccccc3)CC2=O)cc1 (stereo not given),"inconclusive [activator, partial curve]",–
COc1ccc(NC(=O)C2CCCN(S(=O)(=O)c3ccc(F)cc3)C2)cc1 (stereo not given),inactive,–
